This is one part of the list.
T1: UNK ZnF1-3 (human, UniProt Q9C0B0 31-174)
T1 sequence: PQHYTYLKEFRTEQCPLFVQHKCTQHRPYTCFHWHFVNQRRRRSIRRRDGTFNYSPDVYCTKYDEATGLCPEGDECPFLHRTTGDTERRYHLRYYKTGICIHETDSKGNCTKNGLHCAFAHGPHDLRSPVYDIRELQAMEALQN

B1: chr1:201104638:201104639:-_ENSG00000116857_ENST00000367334|hu_mus|FALSE|FALSE (ssRNA)
RNA: GGGAGUUCUACAGUCCGACGAUCCAGAGACCUACAGAGACCCAAUCACACUCCCUCGUUAUAACAGUCGAGUACAUUUCUAGAGAGGGAGAAGGAUAAACGCCAUGGGCAUUUGAAGGGAAGACCCAGGGAAGACUGCAGUGACAACAGAGGAUUGAGCAUCA
B2: 147080382_147080502_6135_CDS_ENSMUSG00000025272_ENSMUST00000087258|mouse|control|control (ssRNA)
RNA: GGGAGUUCUACAGUCCGACGAUCACUACCAAAGCCAGCUGCAGUGCUUGGUCCUCCGAAGCCACCUCCAGUGCUUGGUCCUCCGAAGCCACCUCCAGUGCUUGGUCCUCCAAAGCCACCUCCAGUGCUUGGUCCUCCAAAGCCCAACAGAGGAUUGAGCAUCA
B3: chr3:176768308:176768309:-_ENSG00000177565_ENST00000430069|hu_mus|FALSE|FALSE (ssRNA)
RNA: GGGAGUUCUACAGUCCGACGAUCACUGAGGUUCCAGAUUCUUGCCGUGGAGUCUCCAGACCCUGAUGCCAGGAGAUCACUAACAGGGUUCCAGGCACAGAUGAAAACUUCAGAUUCAUGGCCCCGAAGCACAACCGCUUUAUUCAACAGAGGAUUGAGCAUCA
B4: 90432816_90432936_438_3pUTR_ENSMUSG00000053414_ENSMUST00000065856|mouse|control|control (ssRNA)
RNA: GGGAGUUCUACAGUCCGACGAUCUGCCACCAGGACACAGCUCCAUGACCAGGUAGUAGCUGUUCUCUGUCUCCAAGAUGUCCAGGAGCUGUGUGAUGUUGGGGUGUCGGAUCAUCUGCUGGAUCUGCCCCUCUCGACGCAGGUCAACAGAGGAUUGAGCAUCA
B5: 151567571_151572471_2246_3pUTR_ENSMUSG00000034021_ENSMUST00000016569|mouse|control|control (ssRNA)
RNA: GGGAGUUCUACAGUCCGACGAUCAUUUGUAGUGCAGCUUCUGCCACCUUCUCAUCAUCCAUCUUCAGACAAGCCAGAAGGGACUCAAACGUCUCAGCAGAGUGAAAGGAGAUAGGGUGCGUAAAAGACAGCACCUUCAGCAGCCAACAGAGGAUUGAGCAUCA
B6: chr1:225611761:225611762:-_ENSG00000143815_ENST00000272163|hu_mus|hu_hu_hu_mus_True|38_58 (ssRNA)
RNA: GGGAGUUCUACAGUCCGACGAUCCCAGGCCAUCGGCCUCUGACCACUUCACCCUCAACAAACUUCCUACUUGGCAUUUUCUAUAAUUAGUCUGGCCCAGGUUCCGGGGGAACUCCAGCCACUCCAGGACAGUCACCAGCAGCCCAACAGAGGAUUGAGCAUCA
B7: chr11:12883819:12883820:+_ENSG00000187079_ENST00000361905|hu_mus|motif|central (ssRNA)
RNA: GGGAGUUCUACAGUCCGACGAUCAAUGUGACUAGACACCUGCUUCCUGGUCCUUGUCUUUCCCGUCCUGAGUUUGAUGUAUCUGGCGGUCAAUUCAUUUCUACCAUACAUUUUGCCUUCGUCUGAUAAGAUGAUUUUUCUCCUCAACAGAGGAUUGAGCAUCA
B8: 145887673_145887793_1067_CDS_ENSMUSG00000029622_ENSMUST00000085679|mouse|control|control (ssRNA)
RNA: GGGAGUUCUACAGUCCGACGAUCGUUCUUGUGCAGUGAAUCCAGGCCGGCCCCAGUGGCUGCACCCCCCUCAGAGCUGGCCUUCUUGUCCAGGUUCUGGAAGCGCUCUCGGGCUGUCAUGCCACGCUGGGAGCUCUGCUUGGGCAACAGAGGAUUGAGCAUCA
B9: chr2:217001844:217001845:+_ENSG00000079246_ENST00000392132|hu_hu|hu_hu_hu_mus_False|78_108 (ssRNA)
RNA: GGGAGUUCUACAGUCCGACGAUCACCGACUUGAGGAUUAGAUCUUUUGUCAUAAGCAUAUCGAACUAUGGCGACCAUGUUUAACUCAUCCAAAGCAUGAACGAGAGAGGAAAGGGCAACAGCUGCCGCCUCAUCAUCCUUUGCCAACAGAGGAUUGAGCAUCA
B10: chr19:47151266:47151267:-_ENSG00000197380_ENST00000391916|hu_hu|FALSE|FALSE (ssRNA)
RNA: GGGAGUUCUACAGUCCGACGAUCCUGCAGGGACCACCUGAGUCAGACACAGAGUCUCUGACCAGGGUGCCAAGGGGAUAUCUUAAGGGUCCAGGGACAUGGAGGGGGCACUUUGUGAAUGAGAGGGGGCCAUAGCUGGGCAAGCAACAGAGGAUUGAGCAUCA
B11: chrX:148277548:148277549:+_ENSMUSG00000025261_ENSMUST00000112622|mus_mus|motif|central (ssRNA)
RNA: GGGAGUUCUACAGUCCGACGAUCAAGGACUGCCAGCACCACUUGCAUAUCAGAGGAAGCCAAUAAAGUUGUCAAAUGCUCGGUGGAACUGUACAGAUGCCGAGAAAAGCUGUACUCAAUGAGCAAGGCUGUGAAGUUCAAUACCAACAGAGGAUUGAGCAUCA
B12: chr14:76904430:76904431:+_ENSMUSG00000022010_ENSMUST00000022587|mus_mus|mus_mus_mus_hu_True|28_58 (ssRNA)
RNA: GGGAGUUCUACAGUCCGACGAUCUGCAGCCAAAAACACCCUCGUGGAAAAAAAGAGGGAACACCAGCAGCCUUGUACAAACUAGAUAAAAUCUUCUGGCUUUCCGCAGCUCAGGGCGAAACAGAAAACGGCAGCCCUAAUUUACAACAGAGGAUUGAGCAUCA
B13: chr1:154686295:154686296:-_ENSMUSG00000042772_ENSMUST00000043560|mus_mus|FALSE|FALSE (ssRNA)
RNA: GGGAGUUCUACAGUCCGACGAUCACAUUUCGUGCACACUCAGCGGGCUGGUGGAACACUUACACCCUCUCGACAGCAAGAAACAGACAAGAGAGCUGCCACCUGCAGAGACUGUGUGGGUCAGUCCUGCAAACCCAACAUGCCCAACAGAGGAUUGAGCAUCA
B14: chr6:170627217:170627218:+_ENSG00000112584_ENST00000537664|hu_mus|FALSE|FALSE (ssRNA)
RNA: GGGAGUUCUACAGUCCGACGAUCAUUUCCUUUUUUGCCAGCAUUCUCUUUCACAGAAGCAUAGGAUGACAAGCACUUGUACCGAAAGCUUUCAAACAUGCUCUCUGGAGUGAUGUCAUUGCCAAGCAGACAGGCCAGAAGAGGCAACAGAGGAUUGAGCAUCA
B15: 32355961_32364089_3172_CDS_ENSG00000056097_ENST00000265069|human|control|control (ssRNA)
RNA: GGGAGUUCUACAGUCCGACGAUCGUUAAAACGUUGGCUCAUUUGCGGUAAUGGAUCCAUGCCUAGAACUUUGUGUAUCUGGCGGAAUGCAAGGAGUCUCAAUGCAAACUGUGCACUGGAUGUGAUGUCUUCACGCUGCUGGUCCAACAGAGGAUUGAGCAUCA
B16: chr3:170585912:170585913:-_ENSG00000163584_ENST00000463836|hu_mus|FALSE|FALSE (ssRNA)
RNA: GGGAGUUCUACAGUCCGACGAUCGUGAACAACAUUGCCAAGAUUUCCAGUUUUUCCAUUGACUUUAACCUUCUCCCGUAGAAACUGUUCAAAAUUUCCAGAGUCAAAAAUUCCAUCUUCUACUGGAUGAGUAAGGUCCAAAUGCAACAGAGGAUUGAGCAUCA
B17: chr7:141438946:141438947:+_ENSG00000106028_ENST00000265304|hu_mus|hu_hu_hu_mus_True|18_108 (ssRNA)
RNA: GGGAGUUCUACAGUCCGACGAUCGACUACCUGUAAUUAACACAGGUCUUCGAAACAUGGCUUCUGUUUUUCUUACAACCUAAUCUUUAGGCUUUUCCUAAAGGAAAGAAAGAAAAGGCCCAGCCACUAAAUCAAGAAACUACACAACAGAGGAUUGAGCAUCA
B18: chr3:19126987:19126988:-_ENSMUSG00000069094_ENSMUST00000091314|mus_hu|motif|central (ssRNA)
RNA: GGGAGUUCUACAGUCCGACGAUCUAAAAAAAAUUGCAUUGCCAAACGGCACUGGAGUGAAAGCUUGGCGGUACUCGGCGAUAAAUGCUCAGUUUCCAGUGCAUGAAAUAAAACUAUAGCAAAUGGGAGGCUUUGGUGGCAUCCCAACAGAGGAUUGAGCAUCA
B19: chr4:115894766:115894767:+_ENSMUSG00000028698_ENSMUST00000030464|mus_mus|FALSE|FALSE (ssRNA)
RNA: GGGAGUUCUACAGUCCGACGAUCUCCACACGGAAAUGUACUUGGGGGUUUCCAACGGCCAGUACAAGUCCAGCCAAACUACUAGGAUGAGGACAAGGUCCUCCUCUUCUCUCCUCCUAAAGCACCCAACAAAAUACCCCGAACCAACAGAGGAUUGAGCAUCA
B20: chrX:100667754:100667755:+_ENSG00000126945_ENST00000316594|hu_mus|motif|central (ssRNA)
RNA: GGGAGUUCUACAGUCCGACGAUCUCCAUAUCUAUGAUCAGACAUUCCUGAGAAACAGUAGUUUAGGUCUCUUCCAAAUCGGUCAGACCCAAAACCAUACCCGUCAUUAUAACCUCCAUAGUCAUCAUAGCCUCCAUACCCUCCCAACAGAGGAUUGAGCAUCA
B21: chr1:245021434:245021435:-_ENSG00000153187_ENST00000283179|hu_hu|FALSE|FALSE (ssRNA)
RNA: GGGAGUUCUACAGUCCGACGAUCGAUGAAAGUAUACUCUUCAGGUAUUGGAAAAUAUGGCUUUUCCUUCUGACCAAAAUUAAAUUCAACUGCACAGUUGUGGCAGAGAACAUGCGGGAACAGUGGCCGUCCAGCAAGAACUUCCAACAGAGGAUUGAGCAUCA
B22: chr7:102944291:102944292:+_ENSG00000105819_ENST00000453466|hu_hu|FALSE|FALSE (ssRNA)
RNA: GGGAGUUCUACAGUCCGACGAUCGUUCAAUCUCUGCUUCUCCCAAUGUGCUGUUUUGUAUUAUAUCAGCAAGAAUUUCUACAGCUCUUGGCAAGUCUUUAGAGAAUGCUUUGGCAUAGUAUACAGUCUGCUCUCUGGAGGUAUCAACAGAGGAUUGAGCAUCA

Biological target: T1, UNK ZnF1-3
Test: nsRBNS (natural sequence RNA bind-n-seq); RBNS binding buffer (assumed for nsRBNS): 25 mM Tris pH 7.5, 150 mM KCl, 3 mM MgCl2, 0.01% Triton X-100, 500 ug/ml BSA, 20 U/ml SUPERase-In, 4 C; UNK is unkempt and MSI1 is Musashi-1; names of the RNAs are library labels; protein concentration not given here; high values mean tight binding

| Binder | binding signal |
| --- | --- |
| B1 | 1.54 enrichment R |
| B2 | 1.13 enrichment R |
| B3 | 1.16 enrichment R |
| B4 | 0.458 enrichment R |
| B5 | 1.02 enrichment R |
| B6 | 1.45 enrichment R |
| B7 | 0.401 enrichment R |
| B8 | 0.815 enrichment R |
| B9 | 1.8 enrichment R |
| B10 | 1.54 enrichment R |
| B11 | 1.79 enrichment R |
| B12 | 1.67 enrichment R |
| B13 | 0.881 enrichment R |
| B14 | 0.956 enrichment R |
| B15 | 0.879 enrichment R |
| B16 | 0.723 enrichment R |
| B17 | 0.545 enrichment R |
| B18 | 1.13 enrichment R |
| B19 | 1.24 enrichment R |
| B20 | 0.986 enrichment R |
| B21 | 0.665 enrichment R |
| B22 | 0.984 enrichment R |

— publication PMC12136788
